# Measurements taken from ChEMBL document CHEMBL4888484, “Replenishing the malaria drug discovery pipeline: Screening and hit evaluation of the MMV Hit Generation Library 1 (HGL1) against asexual blood stage Plasmodium falciparum ,using a nano luciferase reporter read-out” (2022).
# About 540 (0.36%) of roughly 150,000 compounds showed an effect of 50% or more. This is one part of the list.
# System: Plasmodium falciparum
# Test: Primary screen in NF54 nanoGlo assay, in single point, at 2uM, 72h; a lower Z score goes with more inhibition
# Assay type: functional, Erythrocyte
# Conditions: timepoint 72 hour
SMILES,% Inhibition,Z score
Cn1ncc(N2CC[C@H](CNC(=O)c3cccc(-c4ncc[nH]4)c3)C2)cc1=O,2%,-0.3
Cc1cccc([C@H]2C[C@@H]2C(=O)NCC(C(=O)O)c2ccc(F)cc2)c1 (some centres undefined),-9%,1.17
CCCc1ccc(CN2C[C@H](NC(=O)CO)[C@@H](C3CC3)C2)o1,-18%,3.13
CN(C)c1ncc(CN2CCO[C@H](c3ccc(Cl)cc3)C2)cn1,1%,-0.08
COC[C@@H](c1cccc(C(F)(F)F)c1)N(C)CC(=O)O,-5%,0.73
CC(C)C(C)(C#N)NC(=O)CN1CCC2CCN(C)CC21 (centres undefined),-14%,2.04
COc1cccc(-c2ccc(N3CCC(NCc4ccncn4)CC3)cc2)c1,-7%,1.29
COCCN1C(=O)C[C@](CC(=O)N(C)Cc2ccc(F)cc2)(c2ccccc2OC)C1=O,10%,-1.25
Cc1nc[nH]c1-c1nccn1Cc1cc2ccccc2[nH]1,-7%,1.34
O=C(NCc1nc(C2CC2)no1)c1ccccc1OCc1ccccc1,-11%,1.65
CC(C)[C@@H]1CCCN1CCN1C(=O)NC(C)(C)C1=O,4%,-0.56
COc1ccc(CC(=O)N2CCN(c3cc(-n4cccn4)ncn3)CC2)cc1,5%,-0.79
Cc1nc(C(=O)NC[C@H](C)CN2CCCC2)c(Br)s1,0%,0.05
CC1(CC(F)(F)F)CN(C(=O)c2cncnc2N)C1,-2%,0.27
CC(NC(=O)C1COCCO1)c1nc2cc(Cl)ccc2[nH]1 (centres undefined),-2%,0.31
CC(=O)N1CCc2cc(S(=O)(=O)[C@@H](C)CC(=O)NCCc3ccc(Cl)cc3)ccc21,-1%,0.09
CC(=O)N(C)c1nc(CS(=O)(=O)c2ccc(Cl)cc2)cs1,-17%,2.27
CCn1nc(C)c(CCN(C)c2ccc(C(=O)O)cc2NS(=O)(=O)c2ccc(C)c(C)c2)c1C,8%,-1.3
Cc1nn(C)c(C)c1S(=O)(=O)N1CCC[C@H]1c1noc(COCc2ccccc2)n1,0%,0.06
COc1cccc(Oc2nc(N3CCN(C)CC3)nc3c2CN(Cc2ccc(O)c(OC)c2)CC3)c1,-11%,1.24
COc1ccnc(NC(=O)C#Cc2ccccc2)c1,1%,-0.11
O=C(Cc1c(F)cccc1Cl)N[C@@H]1C[C@H]2C(=O)NCC(=O)N2C1,1%,-0.18
O=S(=O)(N1CCC2(CCCO2)CC1)N1CCc2ccccc2C1,3%,-0.56
Cc1[nH]ccc1C(=O)N[C@@H](CC(C)(C)C)c1cccnc1,-7%,1.43
CC(C)Cc1ccc(C(=O)NCC2(O)CCS(=O)(=O)CC2)s1,-9%,0.94
C[C@@H]1OCCO[C@@H]1C(=O)Nc1cc(C2CC2)nn1-c1ccccc1,11%,-1.45

SMILES,% Inhibition,Z score
Cc1ccccc1Cn1ccnc1CN(C(=O)c1cccs1)C1CCCCC1,-7%,0.66
CCCS(=O)(=O)N1CC(Oc2ccc(-c3noc(-c4ccncc4)n3)cc2)C1,-27%,5.01
CC(C)Oc1ccc(NC(=O)NC[C@@H]2C[C@H](c3ccccc3)CO2)nn1,-5%,0.52
CC(C)Cc1nc(CN(C)C(=O)c2nn(C)c3c2CCCC3)no1,-1%,0.14
O=C(N[C@H]1CCOC[C@@H]1Oc1ccc(CO)cc1)c1n[nH]c2ccccc12,-5%,0.96
CCn1c(-c2ncccn2)nnc1N1CCN(S(C)(=O)=O)CC1,-4%,0.69
O=C(c1ccoc1)N1CCC[C@H](C(=O)N2CCN(C(c3ccccc3)c3ccccc3)CC2)C1,37%,-4.92
CCOc1ccc(C(=O)Nc2ccnn2[C@@H](C)C(C)C)o1,3%,-0.45
CC(=O)c1cccc(CN2CCC[C@H](N(C)CCc3ccccn3)C2)c1,-2%,0.22
CCCS(=O)(=O)NCCCn1c(-c2ccc(C)cc2)nc2cccnc21,-17%,2.28
N#Cc1cccc(C(=O)N[C@H]2[C@H](O)[C@H](O)C[C@@H]2c2cccnc2)c1,14%,-1.69
CC(=O)Oc1ccccc1N(C(C)=O)C(C)=O,-5%,0.8
CC[C@@H]1CN(C(=O)C2CCS(=O)(=O)CC2)CC[C@]1(C)O,3%,-0.54
CN(CCn1cccn1)[C@H]1CCc2ccccc2NC1=O,-10%,1.4
COCCN1C(=O)c2ccc(C(=O)Nc3nc4ccccc4[nH]3)cc2C1=O,-17%,1.54
Cc1nc(C)c(C(=O)N(C)Cc2csc(-c3ccccc3)n2)s1,-12%,1.48
Cc1nc2c(c(=O)n1CC(=O)N1CCc3ccccc3C1)CCN(Cc1ccccc1)C2,27%,-3.1
C[C@@H](Cc1cn(Cc2ccc3c(c2)OCO3)nn1)c1ccccc1,-2%,0.29
CC[C@H](C)N1CCN(C(=O)C(=O)c2cnn(-c3ccccc3)c2)CC1,-4%,0.62
CC(C)Oc1ccc(C(=O)N[C@@H](C)c2cc[nH]n2)c(Cl)c1,-3%,0.42
COc1ccc2c(C)c(C(=O)N(C)CCCOc3cccc(C)c3)oc2c1,-15%,2.96
Cc1cccc2cc(C(=O)NC[C@H](O)CN3CCCCCC3)n(C)c12,-16%,2.75
O=C1NCCN1CC1CCN(C(=O)c2ncc3c(F)cccn23)CC1,0%,-0.04
Cn1c(CNc2ccn(CCc3ccncc3)n2)nc2ccccc21,2%,-0.38
Cn1cccc1C(=O)C(=O)NCCc1ccc(Cl)cc1,-15%,1.41
Cc1ccc(CN2CCc3[nH]nc(-c4c(C)noc4C)c3C2)o1,-1%,0.19
